GI50 and TGI data for four compounds are collected here from PubChem BioAssay (NCI).

Each structure is given as a SMILES string.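 Interpolation was linear, between the two tested concentrations surrounding the appropriate level; five concentrations were tested over 48 hours in 96-well plates. GI50 is the concentration that inhibits growth by half. Definition used: TGI = concentration required for complete inhibition of growth.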

The subject of this assay is NCI-H322M lung. In words: NCI tumour cell line growth inhibition, 48 h.
On to `CC(=C(c1ccc(OCCN(C)C)cc1)c1ccc(OCCN(C)C)cc1)c1ccc(Cl)cc1`, for which the GI50 was 1.06 µM and the TGI amounted to 4.23 µM.

As for `CNC(=O)c1cc(N2CCc3cc(NC(=O)Nc4ccc(N5CCOCC5)c(C(F)(F)F)c4)ccc32)ccn1`, the GI50 was 2.91 µM and the TGI was over 33.3 µM.

As to `c1n[nH]cc1-c1nc2ccc3[nH]ncc3c2c2c1CCCC2`, the GI50 was 1.41 µM and the TGI came out at 7.12 µM.

Consider `CC(=O)Oc1ccccc1C(=O)Nc1cc(C(C)C)ccc1C`, for which the GI50 is 4.89 µM and the TGI turned out to be 65.7 µM.
